From PubChem BioAssay (NCATS)
Several values for one entry are separate records, joined by “and”; a condition that tells them apart may be missing. Equal entries are not always repeated. The shares of active, inactive and inconclusive entries below differ from those in the screen. No potency is given beside an inconclusive call; the fits are too rough. Activity calls are given as the source filed them. The call rests on the fitted dose curve; in most records, active means well fitted cell-killing curve with a large enough effect; inconclusive means small, poorly fitted or top-dose-only effect, or effect the other way; inactive means flat fitted curve, though single readings scatter.

Test: qHTS assay for cell viability of HEK293 cells (AID 743288); further: nearly all actives have a fitted effect of over 50% in size
Conditions: ATP luminescence (CellTiter-Glo), 18 h; max response: active compounds read low
Summary of the method: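 Steps: plate 2,000 parental HEK293 cells per well; incubate ≥5 h, 37 C; add compounds in DMSO; incubate 18 h, 37 C; add CellTiter-Glo; wait 30 min at room temperature; read luminescence.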
On the % scale 0 is the no-effect control and ±100 the full control effect; potency means the concentration at half of the fitted maximal effect; tags describe the fitted curve by direction and shape.

| SMILES | Potency | max response |
| --- | --- | --- |
| C[C@]12CCC(=O)C=C1CC[C@@H]1[C@@H]2CC[C@]2(C)C(=O)CC[C@@H]12 | inconclusive [cytotoxic, partial curve, poor fit] |  |
| CCNc1nc(Cl)nc(NCC)n1 |  | inactive: -8% |
| CCCCCCCCc1ccc(O)cc1 |  | inactive: -15.8% and inactive: -26% |
| O=[N+]([O-])C(Br)(CO)CO | active: 50.1 µM |  |
| CC(C)Nc1ccc(Nc2ccccc2)cc1 | inconclusive [cytotoxic, partial curve, poor fit] |  |
| CCCCCCCCCCCCCCCC[N+](C)(C)C | inconclusive [cytotoxic, partial curve, poor fit] |  |
| Clc1ccc(C(c2ccc(Cl)cc2)C(Cl)(Cl)Cl)cc1 | inconclusive [cytotoxic, partial curve, poor fit] |  |
| O=c1oc2ccccc2c(O)c1C(CC(O)c1ccc(-c2ccc(Br)cc2)cc1)c1ccccc1 (configuration not stated) |  | inactive: -5.59% |
| CCC(=O)O[C@H]1CC[C@H]2[C@@H]3CCC4=CC(=O)CC[C@]4(C)[C@H]3CC[C@]12C |  | inactive: -26.1% |
| C[C@@H]1Cc2c(Cl)cc(C(=O)N[C@@H](Cc3ccccc3)C(=O)O)c(O)c2C(=O)O1 | inconclusive [cytotoxic, full curve, poor fit] |  |
| C=CCC1=C(C)C(OC(=O)C2C(C=C(C)C)C2(C)C)CC1=O (configuration not stated) |  | inactive: -9.9% and inactive: -17.4% |
| O=C(CCl)c1ccc(Cl)cc1Cl | active: 14.1 µM |  |
